According to the BET-seq Pho4 binding data (Le et al. 2018):
This is one part of the list. These are noisy estimates, calculated here from bound and input reads.

Molecular target: T1, Pho4 (S. cerevisiae) (UniProt P07270)
T1 sequence: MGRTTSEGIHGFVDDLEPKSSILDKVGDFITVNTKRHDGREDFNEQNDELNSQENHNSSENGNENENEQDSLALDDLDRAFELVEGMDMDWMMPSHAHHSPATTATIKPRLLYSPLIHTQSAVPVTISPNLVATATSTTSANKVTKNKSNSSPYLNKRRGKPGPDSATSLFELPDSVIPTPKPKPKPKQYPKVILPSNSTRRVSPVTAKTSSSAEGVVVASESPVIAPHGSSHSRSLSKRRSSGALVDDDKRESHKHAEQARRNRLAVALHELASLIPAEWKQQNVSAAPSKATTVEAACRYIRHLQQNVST
Assay: relative binding free energy (BET-seq); higher = weaker binding
Settings: reference: library average

Sequence | relative binding free energy
GATTTCACGTGCTGGG | 0.27 kcal/mol
TGGATCACGTGATAAT | 0.21 kcal/mol
TCGTGCACGTGTTTGA | -0.2 kcal/mol
AGATGCACGTGCGCGG | -0.22 kcal/mol
GTCGGCACGTGGCGTA | -0.04 kcal/mol
GGTGGCACGTGGCAAA | -0.14 kcal/mol
TGTTTCACGTGAGGTG | 0.46 kcal/mol
AGGAGCACGTGGGTGC | -0.12 kcal/mol
TGAACCACGTGTTGTT | 0.07 kcal/mol
ATGTTCACGTGATGAA | 0.29 kcal/mol
AGTATCACGTGTGTGG | 0.09 kcal/mol
GGGGGCACGTGATAGA | 0.04 kcal/mol
ATGGTCACGTGTTAGA | 0.07 kcal/mol
AAATACACGTGGGGAT | 0.08 kcal/mol
TGAAGCACGTGTCTGA | -0.02 kcal/mol
CCGGGCACGTGGTGGG | -0.15 kcal/mol
CGTGACACGTGTGTTG | 0.06 kcal/mol
GGCATCACGTGTGAGG | 0.22 kcal/mol
TTGATCACGTGAGGGG | 0.33 kcal/mol
AATACCACGTGGGTTT | -0.11 kcal/mol
TCATGCACGTGGTAGG | -0.2 kcal/mol
TGGTTCACGTGACGGG | 0.34 kcal/mol
TAGGCCACGTGTTGGT | -0.07 kcal/mol

Sequence | relative binding free energy
TCTCTCACGTGTTTTG | 0.18 kcal/mol
AGGTGCACGTGGTGAG | -0.05 kcal/mol
GGTTGCACGTGCTTTA | -0.07 kcal/mol
TTTATCACGTGGTATA | 0.04 kcal/mol
GTGCACACGTGGGGGT | -0.15 kcal/mol
TTCTGCACGTGGGAGA | -0.12 kcal/mol
AGGGTCACGTGGCGGT | 0.12 kcal/mol
GTATGCACGTGTTAGT | 0.07 kcal/mol
TGTGTCACGTGATCGG | 0.1 kcal/mol
TTGTGCACGTGGGTTG | -0.2 kcal/mol
TCGTACACGTGTATGT | 0.09 kcal/mol
TTCGTCACGTGCTTGT | -0.08 kcal/mol
GCGTGCACGTGGTTGG | 0.06 kcal/mol
ATTCGCACGTGAGGTT | 0.19 kcal/mol
GTCTGCACGTGGGGAA | -0.04 kcal/mol
TGTTACACGTGTGTTG | 0.09 kcal/mol
TGTATCACGTGTCAAT | 0.05 kcal/mol
CTGGGCACGTGTGCGT | -0.12 kcal/mol
GCATTCACGTGTTGGA | 0.24 kcal/mol
AGTGCCACGTGGCGGG | -0.28 kcal/mol
TATGGCACGTGTAGAT | 0.19 kcal/mol
TGGGGCACGTGGAGCT | -0.19 kcal/mol
TATAGCACGTGATGTC | 0.12 kcal/mol

Sequence | relative binding free energy
ATTTACACGTGGATGT | 0.03 kcal/mol
TTTCACACGTGTGTTG | -0.05 kcal/mol
GGTGTCACGTGATTTA | 0.21 kcal/mol
TTCGTCACGTGCTATG | -0.01 kcal/mol
GAAGTCACGTGTGGCT | 0.21 kcal/mol
AGGGGCACGTGAAGCT | 0.16 kcal/mol
TAACTCACGTGGGTGA | 0.07 kcal/mol
GGTTGCACGTGTGTGT | 0.05 kcal/mol
TTAGGCACGTGCCGTA | -0.14 kcal/mol
CTGTGCACGTGGGTTA | -0.1 kcal/mol
TATGGCACGTGTGTGC | -0.15 kcal/mol
GGGGGCACGTGAGAGA | 0.21 kcal/mol
TGGGTCACGTGGAGAC | 0.07 kcal/mol
TGAGTCACGTGGCAAG | 0.03 kcal/mol
AGATACACGTGTCGTG | 0.05 kcal/mol
TACTACACGTGGGTTG | -0.01 kcal/mol
GTAGGCACGTGGGAAG | -0.09 kcal/mol
TGATACACGTGATGTG | 0.12 kcal/mol
TTGTACACGTGTGTGT | 0.05 kcal/mol
GGTATCACGTGGGGAA | 0.13 kcal/mol
GGATTCACGTGTTGAG | 0.32 kcal/mol
TGTTTCACGTGGGTTG | 0.23 kcal/mol
CGGGCCACGTGGTCTG | -0.13 kcal/mol

Sequence | relative binding free energy
CGTCGCACGTGGTGGT | -0.11 kcal/mol
TTTTTCACGTGCATTT | 0.35 kcal/mol
TAGGACACGTGTGTCG | 0.08 kcal/mol
ATCGGCACGTGGTGAA | 0.02 kcal/mol
TTAATCACGTGGGCAG | -0.05 kcal/mol
TGATGCACGTGCGTGG | -0.2 kcal/mol
GTGCTCACGTGGAGGA | 0.21 kcal/mol
TTATTCACGTGCCTGG | 0.26 kcal/mol
GGGCTCACGTGAAGGT | 0.54 kcal/mol
AAAAGCACGTGTTGTG | -0.13 kcal/mol
AAGGACACGTGGGTAA | -0.02 kcal/mol
TTATCCACGTGGGTCT | -0.03 kcal/mol
TGGTTCACGTGATCGT | 0.25 kcal/mol
TTGTGCACGTGTAGTT | 0.1 kcal/mol
AAGTACACGTGGTGGC | -0.02 kcal/mol
TATTCCACGTGATTGG | 0.17 kcal/mol
GGCAGCACGTGAGGAT | 0.27 kcal/mol
GTAGGCACGTGTCGTG | 0.04 kcal/mol
TGTGGCACGTGCGACT | -0.15 kcal/mol
TTAGACACGTGGTAGG | 0 kcal/mol
TATGTCACGTGATGAG | 0.24 kcal/mol
GGGTTCACGTGACTTG | 0.43 kcal/mol
AGGGGCACGTGCTGGA | -0.26 kcal/mol

Sequence | relative binding free energy
TGTGGCACGTGATATG | 0 kcal/mol
TTAGACACGTGATTTA | 0.18 kcal/mol
AATGGCACGTGAGAGG | 0.21 kcal/mol
ATTGGCACGTGCTTTG | -0.09 kcal/mol
TTTTGCACGTGTGACA | 0.09 kcal/mol
ATAAGCACGTGGGAGA | -0.03 kcal/mol
CCGTGCACGTGGTTTG | -0.04 kcal/mol
TTATTCACGTGTGATT | 0.34 kcal/mol
TAGTACACGTGGTACT | -0.05 kcal/mol
AGCATCACGTGTTGAG | 0.23 kcal/mol
GGAGACACGTGTCGTG | -0.13 kcal/mol
CGTGTCACGTGGAAAT | 0.24 kcal/mol
ATTGGCACGTGAAAAT | 0.19 kcal/mol
GGTAGCACGTGAAGAG | 0.29 kcal/mol
ACGGTCACGTGGTGGG | -0.02 kcal/mol
GCACGCACGTGGTTGG | -0.06 kcal/mol
TATGGCACGTGATCTG | -0.09 kcal/mol
GGTGTCACGTGGTGAA | 0.06 kcal/mol
TTTCACACGTGTTGAA | 0.09 kcal/mol
GGGAGCACGTGGAGGC | -0.09 kcal/mol
TGAACCACGTGGGTGG | -0.15 kcal/mol
TTGAACACGTGCTGTT | -0.09 kcal/mol
TTTATCACGTGGGAGT | 0.02 kcal/mol
